Test results taken from article PMC5700166.
The entries are a selection whose mix differs from that of the whole data set. The list includes weakly bound sequences.

How the values were obtained:
Assay in all cases: protein-binding microarray (PBM)
Conditions in all cases: PBM: ~300 nM protein, 6 mM HEPES pH 7.8, 80 mM KCl, 0.5 mM EDTA, 0.5 mM EGTA, 6% glycerol, 35 ng/ul poly-dIdC, 1% milk, 1 h, room temperature; Ap Aiptasia and Nv Nematostella (sea anemones) / Co Capsaspora / Aq Amphimedon (sponge) / Dm Drosophila / Hu human; RHD is the Rel homology domain; high values mean tight binding; most listed sequences are background and not binding sites; double strand, one strand shown
[1] = biological target: T1, GST-Ap-NF-kB RHD (UniProt A0A913YAJ5)
T1 sequence: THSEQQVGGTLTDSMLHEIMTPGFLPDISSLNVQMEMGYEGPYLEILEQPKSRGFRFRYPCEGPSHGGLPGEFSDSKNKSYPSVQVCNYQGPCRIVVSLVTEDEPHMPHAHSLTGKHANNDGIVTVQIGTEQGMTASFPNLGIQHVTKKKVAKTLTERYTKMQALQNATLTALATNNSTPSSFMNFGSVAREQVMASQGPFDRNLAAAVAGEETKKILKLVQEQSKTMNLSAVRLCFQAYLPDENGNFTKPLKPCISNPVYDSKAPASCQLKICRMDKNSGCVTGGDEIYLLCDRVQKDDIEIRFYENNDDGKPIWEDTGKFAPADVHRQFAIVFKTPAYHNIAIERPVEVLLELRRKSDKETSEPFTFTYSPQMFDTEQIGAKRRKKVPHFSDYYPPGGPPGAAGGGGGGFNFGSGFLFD

[2] = biological target: T2, GST-Aq-NF-kB (UniProt A9Y5G7)
T2 sequence: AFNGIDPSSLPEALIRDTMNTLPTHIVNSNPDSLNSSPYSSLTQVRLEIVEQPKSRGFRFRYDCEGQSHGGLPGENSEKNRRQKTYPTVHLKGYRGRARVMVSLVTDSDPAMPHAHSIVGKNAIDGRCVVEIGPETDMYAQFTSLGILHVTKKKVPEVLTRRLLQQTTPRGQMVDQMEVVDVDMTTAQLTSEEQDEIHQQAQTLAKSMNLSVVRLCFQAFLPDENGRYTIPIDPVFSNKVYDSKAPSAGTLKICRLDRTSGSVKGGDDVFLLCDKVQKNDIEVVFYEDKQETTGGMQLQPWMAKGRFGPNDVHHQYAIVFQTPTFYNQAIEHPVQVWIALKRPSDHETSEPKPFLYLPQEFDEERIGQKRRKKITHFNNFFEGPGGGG

[3] = biological target: T3, GST-Nv-NF-kB (Cys allele) (UniProt E5G601)
T3 sequence: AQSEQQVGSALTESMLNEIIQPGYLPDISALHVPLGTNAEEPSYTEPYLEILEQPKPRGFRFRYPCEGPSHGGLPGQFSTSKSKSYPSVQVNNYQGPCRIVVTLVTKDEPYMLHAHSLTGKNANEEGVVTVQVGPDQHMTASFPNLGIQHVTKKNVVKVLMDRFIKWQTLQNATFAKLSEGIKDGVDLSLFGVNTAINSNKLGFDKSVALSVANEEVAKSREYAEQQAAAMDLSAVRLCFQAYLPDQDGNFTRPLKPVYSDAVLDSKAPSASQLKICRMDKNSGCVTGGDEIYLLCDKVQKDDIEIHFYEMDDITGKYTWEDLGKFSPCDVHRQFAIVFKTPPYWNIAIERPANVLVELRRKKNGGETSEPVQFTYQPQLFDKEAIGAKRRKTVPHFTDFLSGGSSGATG

[4] = biological target: T4, GST-Co-NF-kB (UniProt F1ARL5)
T4 sequence: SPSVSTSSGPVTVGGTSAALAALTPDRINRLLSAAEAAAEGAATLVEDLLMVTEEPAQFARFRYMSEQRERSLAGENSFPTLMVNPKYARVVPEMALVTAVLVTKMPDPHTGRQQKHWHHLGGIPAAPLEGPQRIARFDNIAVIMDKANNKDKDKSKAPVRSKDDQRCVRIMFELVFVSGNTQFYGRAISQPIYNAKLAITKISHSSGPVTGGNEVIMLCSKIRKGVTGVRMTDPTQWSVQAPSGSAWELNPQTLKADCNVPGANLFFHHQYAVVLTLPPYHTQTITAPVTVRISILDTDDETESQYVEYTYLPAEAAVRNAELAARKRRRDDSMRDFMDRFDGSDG

Sequence | binding signal [1] | binding signal [2] | binding signal [3] | binding signal [4]
CCGATTAACATCAGACTTTCCCATGATGTTAATCGGGTCTTGATTCGCTTGACGCTGCTG | 3 z-score | 4.28 z-score |  | 
CCGATTAACATCAGGGAAAACCCTGATGTTAATCGGGTCTTGATTCGCTTGACGCTGCTG | 7.33 z-score | 10.2 z-score |  | 
CCGATTAACATCACATGGGAATCTGATGTTAATCGGGTCTTGATTCGCTTGACGCTGCTG | 1 z-score | 1.14 z-score |  | 
CCGATTAACATCAGGAATTTATATGATGTTAATCGGGTCTTGATTCGCTTGACGCTGCTG | -0.118 z-score | 0.331 z-score | -0.589 z-score | 0.349 z-score
CCGATTAACATCACGTACTTTCCTGATGTTAATCGGGTCTTGATTCGCTTGACGCTGCTG | 0.358 z-score | 2.39 z-score | 0.0803 z-score | 0.458 z-score
CCGATTAACATCAAAAAAAGTACTGATGTTAATCGGGTCTTGATTCGCTTGACGCTGCTG | 0.529 z-score | 1.54 z-score | 0.966 z-score | 0.662 z-score
CCGATTAACATCAAAAATACCCTTGATGTTAATCGGGTCTTGATTCGCTTGACGCTGCTG | 5.7 z-score | 7.5 z-score | 9.05 z-score | 
CCGATTAACATCAGGATGTTCCCTGATGTTAATCGGGTCTTGATTCGCTTGACGCTGCTG | 2.3 z-score | 4.33 z-score | 1.77 z-score | 
CCGATTAACATCAGGAAAGAACATGATGTTAATCGGGTCTTGATTCGCTTGACGCTGCTG | -0.579 z-score | 0.175 z-score | 0.334 z-score | -0.319 z-score
CCGATTAACATCAAATTCCCCCTTGATGTTAATCGGGTCTTGATTCGCTTGACGCTGCTG | 9.34 z-score | 8.5 z-score | 10.3 z-score | 
CCGATTAACATCAACGGGAACTCTGATGTTAATCGGGTCTTGATTCGCTTGACGCTGCTG | 2.34 z-score | 2.25 z-score | 1.64 z-score | 1.78 z-score
CCGATTAACATCACCGGAATTCCTGATGTTAATCGGGTCTTGATTCGCTTGACGCTGCTG | 1.13 z-score | 2.36 z-score | 0.705 z-score | 
CCGATTAACATCACCCACGAGGGTGATGTTAATCGGGTCTTGATTCGCTTGACGCTGCTG | 0.185 z-score | 0.747 z-score | -0.0198 z-score | 
CCGATTAACATCAGAAATCCCCCTGATGTTAATCGGGTCTTGATTCGCTTGACGCTGCTG | 11.2 z-score | 8.32 z-score | 10.5 z-score | 
CCGATTAACATCAATTATTCCCCTGATGTTAATCGGGTCTTGATTCGCTTGACGCTGCTG | 6.67 z-score | 5.63 z-score | 9.08 z-score | 
CCGATTAACATCAGGAATTACACTGATGTTAATCGGGTCTTGATTCGCTTGACGCTGCTG | -0.334 z-score | 0.194 z-score | -0.574 z-score | -0.093 z-score
CCGATTAACATCAGGGACGTCCCTGATGTTAATCGGGTCTTGATTCGCTTGACGCTGCTG | 7.37 z-score | 8.52 z-score | 7.13 z-score | 1.08 z-score
CCGATTAACATCATAAAAAAAAATGATGTTAATCGGGTCTTGATTCGCTTGACGCTGCTG | -0.355 z-score | 0.207 z-score | 0.588 z-score | -0.34 z-score
CCGATTAACATCAGGGGGAGTCATGATGTTAATCGGGTCTTGATTCGCTTGACGCTGCTG | 5.67 z-score | 4.55 z-score | 4.38 z-score | 
CCGATTAACATCAGGGGAGGTAATGATGTTAATCGGGTCTTGATTCGCTTGACGCTGCTG | 2.69 z-score | 2.71 z-score | 2.66 z-score | 
CCGATTAACATCAGAGTTTCCCCTGATGTTAATCGGGTCTTGATTCGCTTGACGCTGCTG | 7.08 z-score | 6.33 z-score | 8.35 z-score | 
CCGATTAACATCAAGTAAATTCCTGATGTTAATCGGGTCTTGATTCGCTTGACGCTGCTG | -0.159 z-score | 1.35 z-score | 0.631 z-score | 0.285 z-score

Sequence | binding signal [1] | binding signal [2] | binding signal [3] | binding signal [4]
CCGATTAACATCACCCACGACGATGATGTTAATCGGGTCTTGATTCGCTTGACGCTGCTG | 0.453 z-score | 0.459 z-score | 0.0827 z-score | 
CCGATTAACATCAAAAAAAATCCTGATGTTAATCGGGTCTTGATTCGCTTGACGCTGCTG | 0.518 z-score | 2.68 z-score | 0.802 z-score | 0.554 z-score
CCGATTAACATCACGAAAAATCCTGATGTTAATCGGGTCTTGATTCGCTTGACGCTGCTG | -0.319 z-score | 0.937 z-score | -0.537 z-score | -0.623 z-score
CCGATTAACATCAATGGGAATTCTGATGTTAATCGGGTCTTGATTCGCTTGACGCTGCTG | 2.8 z-score | 3.51 z-score | 4.72 z-score | 
CCGATTAACATCAGGGGGGCACCTGATGTTAATCGGGTCTTGATTCGCTTGACGCTGCTG | 4.84 z-score | 4.5 z-score | 3.13 z-score | 
CCGATTAACATCAGTGAATTCCATGATGTTAATCGGGTCTTGATTCGCTTGACGCTGCTG | -0.23 z-score | 0.33 z-score | -0.133 z-score | -0.183 z-score
CCGATTAACATCACCTGGTCGGGTGATGTTAATCGGGTCTTGATTCGCTTGACGCTGCTG | 0.704 z-score | 0.762 z-score | 0.834 z-score | 
CCGATTAACATCAAGGGATTTTCTGATGTTAATCGGGTCTTGATTCGCTTGACGCTGCTG | 5.78 z-score | 6.65 z-score | 6.63 z-score | 
CCGATTAACATCAGTGAACCACATGATGTTAATCGGGTCTTGATTCGCTTGACGCTGCTG | -0.736 z-score | -0.276 z-score | -0.391 z-score | -0.626 z-score
CCGATTAACATCAGAAAATTCCATGATGTTAATCGGGTCTTGATTCGCTTGACGCTGCTG | 0.107 z-score | 1.51 z-score | -0.348 z-score | 0.498 z-score
CCGATTAACATCAGGGGAAAACCTGATGTTAATCGGGTCTTGATTCGCTTGACGCTGCTG | 9.38 z-score | 9.77 z-score | 10.6 z-score | 
CCGATTAACATCAGGATTTCCCCTGATGTTAATCGGGTCTTGATTCGCTTGACGCTGCTG | 10 z-score | 9.68 z-score | 11.1 z-score | 
CCGATTAACATCAAGTACCCCCCTGATGTTAATCGGGTCTTGATTCGCTTGACGCTGCTG | 5.57 z-score | 3.99 z-score | 3.68 z-score | 
CCGATTAACATCACGTTCTTTCCTGATGTTAATCGGGTCTTGATTCGCTTGACGCTGCTG | 0.0952 z-score | 0.667 z-score | 0.717 z-score | 0.781 z-score
CCGATTAACATCAGGGAACAACCTGATGTTAATCGGGTCTTGATTCGCTTGACGCTGCTG | 2.52 z-score | 4.61 z-score | 2.46 z-score | 
CCGATTAACATCAAGAATTCCCCTGATGTTAATCGGGTCTTGATTCGCTTGACGCTGCTG | 9.76 z-score | 8.32 z-score | 11.7 z-score | 7.33 z-score
CCGATTAACATCATTTACATTCGTGATGTTAATCGGGTCTTGATTCGCTTGACGCTGCTG | -0.179 z-score | -0.175 z-score | -0.175 z-score | 0.00142 z-score
CCGATTAACATCACGTAGTTTCCTGATGTTAATCGGGTCTTGATTCGCTTGACGCTGCTG | 0.0811 z-score | 0.759 z-score | -0.0679 z-score | 0.353 z-score
CCGATTAACATCAAATGTCCCCCTGATGTTAATCGGGTCTTGATTCGCTTGACGCTGCTG | 6.37 z-score | 5.64 z-score | 5.25 z-score | 
CCGATTAACATCAGAGTAATTCCTGATGTTAATCGGGTCTTGATTCGCTTGACGCTGCTG | -0.0018 z-score | 0.455 z-score | 0.169 z-score | 0.569 z-score
CCGATTAACATCACGGGAATACCTGATGTTAATCGGGTCTTGATTCGCTTGACGCTGCTG | 4.13 z-score | 5.81 z-score | 3.29 z-score | 
CCGATTAACATCAGGCAAGTCCCTGATGTTAATCGGGTCTTGATTCGCTTGACGCTGCTG | 3.63 z-score | 5.74 z-score | 3.87 z-score | -0.246 z-score
